Laboratory results: PubChem BioAssay AID1508649 (National Center for Advancing Translational Sciences (NCATS), 2021)
Screen size: about 43,000 compounds; about 830 (1.9%) were called active. The inconclusive results got no clear call from the source; some entries with a clear call stand among them for comparison. Rule for the calls: active = clear falling dose curves in both reporters; inconclusive = both reporters move, but less clearly or upward; inactive = either reporter flat; the % is the NLuc reporter signal. Potencies of inconclusive entries are left out as doubtful fits.

experiment: Cell-based coincidence reporter assay to measure PMP22 gene transcription in S16 Pmp22-F2sN cells - Primary screen; conditions: S16 Pmp22-F2sN Schwann cells (luciferase reporters placed in the Pmp22 gene), FLuc/NLuc coincidence luminescence, 24 h; measured here: NLuc reporter readout, at 57.5 µM (top of the series)
In short: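 S16 Schwann cells carrying FLuc/NLuc coincidence reporter in the Pmp22 3' UTR treated with compound 24 h at 37C; FLuc then NLuc luminescence read sequentially by dual-luciferase reagents.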
Potency is the fitted concentration of half-maximal effect; tags give direction and shape of the fitted curve.

| Structure (SMILES) | Potency |
| --- | --- |
| COc1ccccc1Nc1nn2c(=O)c3ccc(C(=O)NCc4ccc(F)cc4)cc3nc2s1 | active: 4.59 µM |
| COc1ccc(-c2noc(CSc3nnc(-c4ccncc4)n3-c3ccc(C)cc3)n2)cc1 | active: 8.91 µM |
| COc1ccc(C)cc1NC(=O)Cn1c(=O)ccc2cc(S(=O)(=O)N3CCCC3)ccc21 | inconclusive [phenotype inactive, single point] |
| CCOc1ccc(NC(=O)CSC2=Nc3ccccc3C3=NC(CC(=O)NCc4ccco4)C(=O)N23)cc1 (configuration not stated) | inconclusive [phenotype inactive, single point] |
| CC1CCN(S(=O)(=O)c2ccc3c(c2)N(CC(=O)NC(C)C)C(=O)CO3)CC1 | inactive |
| Fc1ccc(Cc2cn3cc(-c4ccccc4)nc3s2)cc1 | inactive |
| CCn1cc(C(=O)NCCc2ccc(C)cc2)c(=O)c2cc(S(=O)(=O)N3CCCCC3)ccc21 | inactive |
| O=C(Nc1ccc(Cl)cc1)c1cc(S(=O)(=O)N2CCc3ccccc32)ccc1F | inconclusive [phenotype inactive, single point] |
| CC(C)NC(=O)c1ccccc1NC(=O)c1nsc2ccccc12 | inconclusive [phenotype inactive, single point] |
| COc1cccc(C(=O)Nc2ccc3nc(N4CCC(C)CC4)cc(C)c3c2)c1 | inconclusive [phenotype inactive, single point] |
| Cc1nn2c(=O)cc(COC(=O)c3cccc(NC(=O)c4ccc(C(C)(C)C)cc4)c3)nc2s1 | inactive |
| Cc1ccc2[nH]c(CSc3nnc(COc4ccccc4C)n3C)cc(=O)c2c1 | active: 13.4 µM |
| CCN1CCN(Cc2c(O)ccc3c(C)c(-c4ccccc4)c(=O)oc23)CC1 | inconclusive [phenotype inactive, single point] |
| Cc1cccc(-n2ncc(C(=O)NCc3ccccn3)c2C2CCN(C(=O)OC(C)(C)C)CC2)c1 | inconclusive [phenotype inactive, single point] |
| COc1ccc(CNC(=O)c2cc3c(s2)-c2c(C)cccc2OC3)cc1 | inconclusive [phenotype inactive, single point] |
| COc1cc(C2N=C(N)Nc3nc4ccccc4n32)ccc1OCCC(C)C (configuration not stated) | inconclusive [phenotype inactive, single point] |
| CCOc1ccc(N(CC)S(=O)(=O)N2CCCC(C(=O)NCc3ccccc3Cl)C2)cc1 (configuration not stated) | inconclusive [phenotype inactive, single point] |
| Cc1cc(N2CCCCC2)nc2ccc(NC(=O)/C=C/c3ccccc3OC(C)C)cc12 | inactive |
| O=C(NCc1cccnc1)C1CCN(Cc2cc3ccccc3n2Cc2cccc(Cl)c2)CC1 | inconclusive [phenotype inactive, single point] |

| Structure (SMILES) | Potency |
| --- | --- |
| CCOc1ccccc1NC(=O)Cn1cnc2onc(-c3ccc(F)cc3)c2c1=O | inactive |
| O=C(CSc1cn(CCNC(=O)c2c(F)cccc2F)c2ccccc12)Nc1ccc2c(c1)OCCO2 | inconclusive [phenotype inactive, single point] |
| CCOC(=O)c1sc(NC(=O)/C=C/c2ccc(OCC)cc2)c(C(=O)OCC)c1C | inactive |
| Cc1cccc(NC(=O)CSc2nc3ccc(NC(=O)c4ccco4)cc3s2)c1 | inconclusive [phenotype inactive, single point] |
| COc1cc(Cn2c(=O)sc3ccccc32)ccc1OC(C)C | inconclusive [phenotype inactive, single point] |
| CCCCOc1ccc(CNC(=O)C2CCN(c3nnc(-n4cccc4CNc4ccc(C)cc4)s3)CC2)cc1 | inconclusive [phenotype inactive, partial curve, poor fit] |
| CC(C)OCCCNC(=O)c1ccc(-n2c(-c3ccccc3)cc3c2CCCC3)cc1 | active: 13.4 µM |
| CC(NC(=O)c1cc(Sc2ccc(F)cc2F)nc2ccccc12)c1ccccc1 (configuration not stated) | inconclusive [phenotype inactive, single point] |
| CC1=C(c2ccc(C)cc2)S(=O)(=O)N(Cc2ccc(C(=O)Nc3ccc(F)cc3C)cc2)C1=O | inconclusive [phenotype inactive, single point] |
| Cc1ccc(N2C(=O)c3[nH]nc(-c4ccc(Cl)cc4)c3C2c2ccc(F)cc2)cc1 (configuration not stated) | inconclusive [phenotype inactive, single point] |
| O=C(Nc1nc2ccc(F)cc2s1)c1nc(S(=O)(=O)Cc2ccccc2)ncc1Cl | active: 6.23 µM |
| Cc1ccc(CNC(=O)Cn2cc(C(=O)c3ccc(F)cc3)c(=O)c3ccc(C)nc32)cc1 | inconclusive [phenotype inactive, single point] |
| CSc1ncc(Cl)c(C(=O)N(Cc2ccc(N(C)C)cc2)Cc2ccco2)n1 | inconclusive [phenotype inactive, single point] |
| CC1CCN(S(=O)(=O)c2ccc(C(=O)Nc3sc4c(c3C(N)=O)CC(C)(C)NC4(C)C)cc2)CC1 | inconclusive [phenotype inactive, single point] |
| CCCCC(CC)CNC(=O)C1CCC(CNS(=O)(=O)c2cccc3nsnc23)CC1 (configuration not stated) | inconclusive [phenotype inactive, partial curve] |
| CC(=O)N1c2ccc(S(=O)(=O)N3CCCCCC3)cc2CC1C(=O)NCc1ccc(Cl)cc1 (configuration not stated) | inconclusive [phenotype inactive, single point] |
| COc1ccc(NC(=O)CSc2oc(-c3ccco3)nc2S(=O)(=O)c2ccc(Br)cc2)c(OC)c1 | inconclusive [phenotype inactive, single point] |
| COc1ccc(-c2cc(C(=O)NCc3ccc(F)cc3)c3c(-c4ccc(F)cc4)[nH]nc3n2)cc1OC | inconclusive [phenotype inactive, single point] |
